# Assay results from the supplement of paper PMC3334620.
# In all, about 33,000 sequences were measured (“E-score (-0.5 to 0.5)”: median about -0.016, highest 2% from about 0.31 on). The list shows a part of the results.
# Target: Cst6 (UniProt P40535)
# Assay: PBM E-score (8-mer binding enrichment) (E-score (-0.5 to 0.5)); higher = stronger / more preferred TF binding; most listed sequences are background and not binding sites
# Details: protein concentration: 200 nM; construct: GST-DNA-binding domain
# How it was run: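 Yeast transcription factors carrying a GST tag, as full-length proteins or DNA-binding domains, were produced by PURExpress in vitro transcription/translation. About 100-200 nM protein was applied to universal all-10-mer Agilent arrays, double-stranded by primer extension on fresh or once-stripped slides. Bound protein was detected with fluorescent anti-GST, and scans were normalised with masliner. The Universal PBM Analysis Suite gave each ungapped eight-base word, pooled with its reverse complement, an E-score, a modified Wilcoxon-Mann-Whitney statistic.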
row,Sequence,PBM E-score
1,ACGAACAA,0.286
2,AATTAGGG,-0.244
3,AGTGTAAC,0.00704
4,GAAGAATA,0.0433
5,CACGCACA,0.0345
6,GCCACACA,-0.102
7,CGGGGACG,-0.208
8,ACGCGAAA,0.123
9,CTCGATCA,-0.0541
10,AGTTGATA,0.103
11,AGTCACTC,-0.033
12,GACTCACA,-0.0741
13,CTGAACAG,-0.0826
14,CTGGAACA,0.0416
15,GCGCTGCA,-0.0118
16,GTCCCGCA,-0.236
17,CGCGCTGC,-0.0228
18,CCCGCTGC,-0.0285
19,ACAGGGCA,-0.00397
20,GTCTTATA,0.0319
21,GGTATTCA,0.161
22,CACCTGTC,-0.0696
23,AGCACTCC,-0.112
24,CAGATAAG,-0.0725
25,CGGTCACG,-0.00354

row,Sequence,PBM E-score
1,GCCGGCTA,-0.169
2,AGCAAACC,0.00986
3,ACGGTCCC,-0.413
4,AGAGTCGA,-0.115
5,CTGACGAA,0.29
6,ATGGGATC,-0.0128
7,CCCCACCA,-0.0473
8,GCACTGCA,-0.0994
9,GACGCTAA,-0.0631
10,ATCTAGTC,0.0277
11,AAAACTGT,0.116
12,AAACTTAC,0.079
13,AGCTAAAC,-0.0554
14,CGTCCTCC,-0.219
15,CGTTATGA,0.0852
16,CGCTCATC,0.0975
17,GCGGAAGA,-0.00298
18,CTTGGTCA,-0.07
19,GCACGCTA,-0.14
20,AGGGCTAC,-0.215
21,AGCAGCTC,-0.28
22,ATGGGTCC,-0.242
23,CAGATCGC,0.0923
24,AGCGGGAG,-0.307
25,ATATCCCC,-0.155

row,Sequence,PBM E-score
1,GGGTCACC,-0.153
2,AGGTCAGG,-0.173
3,ATCTGGAC,-0.311
4,GGATTTCA,0.066
5,ATTTTAGC,0.0561
6,TATGGGCA,0.00542
7,CGCGTGTC,0.108
8,GCGGCCCC,-0.286
9,TGTTTAAA,0.176
10,GAACAAGC,-0.111
11,ATCATTAG,0.19
12,GAAAAGCC,-0.113
13,ATCATACA,0.268
14,ACCTGGTA,-0.23
15,ATTAGGTG,0.0133
16,ACAGCTAA,-0.103
17,CATTCCAC,-0.0469
18,CTGCTCAA,-0.162
19,AACCATAG,-0.0945
20,GGCAAGCA,-0.126
21,ACTGTGAC,0.162
22,GGCTTAGA,-0.295
23,AACTCCAG,-0.214
24,CTGGGACC,-0.291
25,CCGCGATC,-0.0946

row,Sequence,PBM E-score
1,GCGGAAGC,-0.0555
2,AGTTGGCA,-0.076
3,ACTTCACT,-0.0201
4,AATAAGGA,-0.0197
5,ATTTAAAG,0.132
6,GCAATGAA,0.223
7,GTGATAGA,0.00535
8,ACTCTGTG,-0.124
9,CCACATCA,0.142
10,AACCCCGG,-0.229
11,ATGGATTC,-0.0266
12,ACCCCTGA,-0.217
13,AAGGTCAT,-0.0103
14,CGGTGCCC,-0.0527
15,AATTGAGT,0.111
16,AAAAAAGT,0.222
17,CTGTAACA,-0.176
18,ACTATCGG,-0.109
19,CAATGTCA,0.206
20,CTTCCGTA,0.13
21,ACGTAATC,0.484
22,TCACGGCA,0.224
23,CCGAGGCG,0.0158
24,TGGACTAA,-0.101
25,ACACACGT,0.239

row,Sequence,PBM E-score
1,AGCAAAAA,0.216
2,GGATGACA,0.287
3,ATCCAAGG,0.0492
4,CTTAGTTA,0.041
5,ACAGTCGG,-0.12
6,TAACACGA,0.0703
7,AGTCCTAA,-0.0516
8,AGTGTTTA,0.147
9,CAGCTGCC,-0.146
10,AGCCAAGA,-0.0216
11,CCCTTTGC,0.0335
12,ATTTCGGC,0.0999
13,AGTGACGG,0.301
14,ACTTTGCC,-0.00947
15,AGAGAAAA,0.212
16,ATTGGACG,-0.116
17,GTATATAA,0.242
18,GTCAGTGA,0.308
19,TCCGATCA,0.0632
20,ACATATAT,0.233
21,ACGACGGC,0.00372
22,CACTACGG,-0.0659
23,CATTCGCG,-0.024
24,CGACGGGC,0.0567
25,CTAACGGC,0.0968

row,Sequence,PBM E-score
1,CAAGCATG,0.0911
2,CAATTCAA,0.145
3,ACCTTAAT,0.0706
4,AATCGGGC,-0.0357
5,GGATTGCC,-0.0937
6,ATTTAAAT,0.273
7,ATGACTCG,0.00617
8,ACACGAGC,-0.141
9,ACAATCCA,0.231
10,AACTTAGC,-0.0223
11,AGATAAAG,0.103
12,ACTCCGGC,0.0693
13,GATGCTAA,0.146
14,AAGCATAA,0.0827
15,GACAACTA,0.155
16,ATCGTAGC,0.0328
17,AAAGAGAC,0.00837
18,ATGCATCG,-0.00649
19,AGCGTCCG,-0.0013
20,AGTGTGAA,0.0896
21,GAATGTTA,0.0491
22,AATTTAGG,0.23
23,ACGGCGAC,0.217
24,CCAGCAAC,-0.05
25,CGGATTTA,0.131

row,Sequence,PBM E-score
1,AGAGGCAT,0.0976
2,AGACATAC,-0.053
3,GGACTTAC,-0.103
4,ATGAGATA,0.214
5,CCCGTCTC,-0.326
6,TCCGAGGA,-0.247
7,CCGGTCCG,-0.256
8,GCACCCAA,-0.0332
9,ATGGGTTG,-0.0487
10,CTAAGCAG,-0.126
11,TCAATCCA,0.0787
12,GCGATCAA,-0.00522
13,GTCATGTA,0.216
14,GATTGGCA,-0.0435
15,ACGAGCCT,-0.102
16,CTACCCTC,-0.178
17,ACCAGCAA,0.118
18,AGCTAGAC,-0.113
19,CGTAGGCC,-0.0444
20,GCCCTCGA,-0.25
21,AGCGTATC,-0.14
22,GGCTCACA,0.0214
